Molecules are shown by their SMILES. This is one part of the list. Shown are side measurements of this screen, not its main read-out; they come without a call. Most of these compounds were active or inconclusive in the main read-out, so they are no random draw.

The nature of this assay: qHTS Assay for Lipid Storage Modulators (AID 1519). The note with it: Drosophila S3 cells, BODIPY lipid droplet/cell ratio, laser cytometry; measured here: cell count channel max response; cells loaded with oleic acid. The method in brief: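 Cells seeded at 5,000 per well were treated with compounds over a concentration series and loaded with oleic acid (400 uM, as added). Lipid droplet fluorescence (488 nm excitation, 500-530 nm channel) was read by laser-scanning cytometry and normalized to 20 uM Triacsin C.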
As to `COCCn1c(=O)c(-c2ccc(Cl)cc2)nc2cnc(Oc3ccc(OC)cc3)nc21`, the max response is -25%. On to `O=C(c1cccc(F)c1)N1CCC2(CC1)CCN(c1ccccn1)CC2`, for which the max response was 7.31%.

As for `Cc1ccccc1-c1nc(NC2CCNCC2)c2ccccc2n1`, the max response came to 28.3%. Consider `CC(=O)NCCNc1ncncc1-c1ccccc1CN(C)C`, for which the max response came to 23.7%. With `O=c1c(-c2cccc(Cl)c2)nc2cncnc2n1Cc1ccccc1Cl` the figure was 22.1%; with `CN(C)C(=O)c1ccc(-c2ccc3ncnc(N4CCOCC4)c3c2)cc1`, 6.9%; with `COc1ccc(-n2c(=O)cnc3cnc(Oc4cccc(Cl)c4)nc32)cc1`, 18.5%. The value for `COc1cccc(Nc2ncc3nc(-c4ccc(Cl)cc4)c(=O)n(C[C@H]4CCCO4)c3n2)c1` was -20.4%. Regarding `NC(Cc1cc(I)c(Oc2cc(I)c(O)c(I)c2)c(I)c1)C(=O)O` (stereo not given), the max response was determined as 11.7%. Regarding `C[C@]12CCC3c4ccc(O)cc4CCC3C1CCC2OC(=O)CCC1CCCC1` (stereo not given in full), the max response was 1.5%.

Consider `CN1CCN(c2ccnc(-c3cccnc3)n2)CC1`, for which the max response came out at 26.5%. With `N#Cc1ccc(CN2CCCC3(CCN(C(=O)c4cnccn4)CC3)C2)cc1` the figure was 23%; with `O=C(c1ccncc1)N1CCC2(CCCN(c3ncccn3)C2)CC1`, 16.8%. With `CCN(CC)CC(=O)Nc1c(C)cccc1C` the figure was 21.2%. With `Nc1nc(/C(=C/CC(=O)O)C(=O)NC2C(=O)N3C(C(=O)O)=CCSC23)cs1` (stereo not given) the figure was 22.9%; with `CN(C)c1ncc2nc(-c3cc(F)cc(F)c3)c(=O)n(Cc3cccs3)c2n1`, 14.7%; with `Cc1nc2cnc(N3CCOCC3)nc2n(CCc2ccccc2)c1=O`, 4.16%. `O=C(Nc1cccc(F)c1)N1CCCC2(CCN(C(=O)c3cccc(F)c3)CC2)C1`: the max response was 17.6%. Regarding `COc1cccc(-c2cncnc2NCc2cccc(C)c2)c1`, the max response is 18.6%. For `O=C(c1cnccn1)N1CCC2(CC1)CCN(c1ccccn1)CC2`, the max response was 21.3%. Regarding `CN(C)C(=O)c1ccc(-c2ccc3ncnc(NCc4ccccc4)c3c2)cc1`, the max response was 19.6%.

Regarding `c1cncc(CNc2ncncc2-c2ccoc2)c1`, the max response came out at 25.4%. Take `CN(C)c1ncc2nc(-c3cc(F)cc(F)c3)c(=O)n(Cc3ccc(F)cc3)c2n1`: the max response was determined as 23.7%.

As to `FC(F)(F)c1ccccc1-c1cncnc1NCc1cccs1`, the max response was 18.3%. With `COc1cccc(Nc2ncc3nc(CCc4ccccc4)c(=O)n(Cc4cccs4)c3n2)c1` the figure was 38.1%; with `CC(C)(C)c1ccc([C@@H](O)CCCN2CCC(C(O)(c3ccccc3)c3ccccc3)CC2)cc1`, -29.4%.

For `COc1cccc(Cn2c(=O)c(-c3cccs3)nc3cnc(N4CCNCC4)nc32)c1`, the max response worked out at 13.7%.

As for `COc1ncc2nc(CCc3ccccc3)c(=O)n(Cc3cccs3)c2n1`, the max response was determined as 13.9%. On to `O=C(c1ccco1)N1CCC2(CCCN(Cc3ccccc3)C2)CC1`, for which the max response amounted to 25.5%.

As for `O=c1c(-c2ccc(F)cc2)nc2cncnc2n1C1CC1`, the max response amounted to 25.5%. With `N#CCCn1c(=O)cnc2cnc(Oc3cccc(Cl)c3)nc21` the figure was 26%. On to `O=C(c1cnccn1)N1CCC[C@@]2(CCN(c3cccc(-c4ccccc4)c3)C2)C1`, for which the max response was determined as 12%. For the compound `CCCCCCCCCCCCCCCCCCc1ccc(C(=O)/C=C\C(=O)O)cc1`, the max response worked out at 5.93%.

Take `CC(=O)Oc1c(-c2ccccc2)oc2c(CC=C(C)C)c3c(c(OC(C)=O)c2c1=O)C=CC(C)(C)O3`: the max response was determined as 10.9%.

Turning to `COc1ccc(Oc2ncc3nc(-c4cccs4)c(=O)n(C)c3n2)cc1`, the max response came out at 22.4%. As to `COCC(=O)N1CCC2(CC1)CN(Cc1ccccc1OC)C2`, the max response amounted to 26.2%. Turning to `O=C1C=CC(=C(c2ccc(O)cc2)c2ccc(O)cc2)C=C1`, the max response is -6.56%. On to `C=C1c2cccc(O)c2C(O)=C2C(=O)[C@]3(O)C(O)=C(C(N)=O)C(=O)C(N(C)C)C3C(O)C12` (stereo not given in full), for which the max response was found to be 25.5%. As for `O=c1c(-c2ccc(F)cc2)nc2cncnc2n1-c1ccccc1`, the max response stood at 20.4%. Turning to `O=C(Nc1ccccc1)N1CCC2(CC1)CCN(C(=O)c1cccc(F)c1)CC2`, the max response stood at 13.5%.

(Values after PubChem BioAssay (NCATS).)
